One assay relates to HSkMC. The experiment in a line: cytotoxicity call (relative viability < 0.9). Particulars: 10 µM.
A further assay relates to HepG2. The experiment in a line: cytotoxicity call (relative viability < 0.9). The following applies: 10 µM.
For a further assay, the system named is S. aureus RN4220. The assay is described as follows: growth inhibition call (relative growth <= 0.2). The following applies: 50 µM.

The list shows a part of the results.

Turning to `C[C@H](CO)N1C[C@H](C)[C@H](CN(C)S(C)(=O)=O)Oc2c(NS(=O)(=O)c3ccc(F)cc3)cccc2C1=O`, the cytotoxicity call in the assay on HSkMC and with HepG2 was “inactive” throughout. In the assay on S. aureus RN4220, the growth inhibition call was “inactive”.
Take `CC(C)NC(=O)N(C)C[C@@H]1OCCCC[C@H](C)Oc2ccc(NS(C)(=O)=O)cc2C(=O)N([C@H](C)CO)C[C@@H]1C`: the cytotoxicity call in the assay with HSkMC and with HepG2 was “inactive” in each case. Also, the growth inhibition call in the assay on S. aureus RN4220 was “inactive”.
Consider `COc1ccc([Si](C)(C)[C@@H]2[C@@H](CC(=O)N(CCO)Cc3ccccc3)O[C@]3(C(=O)N(Cc4cccc(N5CCOC5=O)c4)c4ccccc43)[C@H]2C)cc1`, for which the cytotoxicity call in the assay on HSkMC and in the assay on HepG2 was “inactive” throughout. The growth inhibition call with S. aureus RN4220 was “inactive”.
Turning to `COc1ccc(S(=O)(=O)Nc2ccc3c(c2)C(=O)N([C@H](C)CO)C[C@@H](C)[C@@H](CN(C)CC2CCCCC2)OCCCC[C@@H](C)O3)cc1`, the cytotoxicity call in the assay with HSkMC was “inactive”. For the same molecule, in the assay on HepG2, the cytotoxicity call is “active”. The growth inhibition call with S. aureus RN4220 was “inactive”.
In the case of `C[C@@H]1CCCCO[C@H](CN(C)C(=O)Nc2ccc(C(F)(F)F)cc2)[C@@H](C)CN([C@H](C)CO)C(=O)c2cc(NC(=O)Nc3ccc(F)cc3)ccc2O1`, in the assay on HSkMC, the cytotoxicity call is “inactive”. In addition, in the assay on HepG2, the cytotoxicity call was “active”. The growth inhibition call in the assay on S. aureus RN4220 was “inactive”.
For `Cc1noc(C)c1NC(=O)Nc1ccc2c(c1)C(=O)N([C@H](C)CO)C[C@@H](C)[C@@H](CN(C)Cc1ccc(C(=O)O)cc1)OCCCC[C@@H](C)O2`, the cytotoxicity call with HSkMC and in the assay on HepG2 was “inactive” each time. Moreover, in the assay on S. aureus RN4220, the growth inhibition call is “inactive”.
On to `Cc1noc(C)c1S(=O)(=O)N(C)C[C@H]1Oc2ccc(NS(=O)(=O)c3ccc(F)cc3)cc2CC(=O)N([C@@H](C)CO)C[C@@H]1C`, for which the cytotoxicity call in the assay on HSkMC and with HepG2 was “inactive” throughout. Further, the growth inhibition call in the assay on S. aureus RN4220 was “inactive”.
Regarding `C[C@H]1CN([C@@H](C)CO)C(=O)c2cc(C#Cc3ccccc3F)cnc2O[C@@H]1CN(C)C(=O)Cc1ccncc1`, the cytotoxicity call with HSkMC and with HepG2 was “inactive” each time. Further, the growth inhibition call in the assay with S. aureus RN4220 is “inactive”.
As to `O=C(N1CCOCC1)[C@@]1(CCS(=O)(=O)c2ccccc2)N=C(c2ccc(OCCCO)cc2)O[C@H]1c1ccccc1`, the cytotoxicity call in the assay on HSkMC and in the assay with HepG2 was “inactive” throughout. Besides, the growth inhibition call in the assay on S. aureus RN4220 is “inactive”.
Take `C[C@@H]1CCCCO[C@@H](CN(C)C(=O)Cc2ccccc2)[C@@H](C)CN([C@@H](C)CO)C(=O)c2cc(NC(=O)CCC(F)(F)F)ccc2O1`: the cytotoxicity call with HSkMC and in the assay with HepG2 was “inactive” each time. Moreover, in the assay on S. aureus RN4220, the growth inhibition call was “inactive”.
Regarding `CCS(=O)(=O)N1C[C@]2(CN(C2)C(=O)Nc2c(noc2C)C)c2c(n(c3cc(ccc23)OC)C)[C@@H]1CO`, the cytotoxicity call in the assay on HSkMC and in the assay with HepG2 was “inactive” in each case. In addition, in the assay with S. aureus RN4220, the growth inhibition call was “inactive”.
As for `O=C(C[C@@H]1CC[C@@H]2[C@H](COC[C@@H](O)CN2C(=O)C2CC2)O1)NCc1ccncc1`, the cytotoxicity call in the assay on HSkMC and in the assay on HepG2 was “inactive” in each case. Moreover, the growth inhibition call in the assay with S. aureus RN4220 was “inactive”.
`COc1cccc(NC(=O)N[C@H]2C=C[C@H](CC(=O)N3CCOCC3)O[C@@H]2CO)c1`: the cytotoxicity call in the assay with HSkMC and in the assay on HepG2 was “inactive” each time. Moreover, the growth inhibition call in the assay on S. aureus RN4220 is “inactive”.
In the case of `CN1CCN(C(=O)C[C@H]2CC[C@H]3[C@@H](COC[C@H](O)CN3C(=O)C3CC3)O2)CC1`, the cytotoxicity call in the assay with HSkMC and in the assay with HepG2 was “inactive” each time. Besides, the growth inhibition call with S. aureus RN4220 is “inactive”.
For the molecule `COc1ccc(NC(=O)Nc2ccc3c(c2)C(=O)N([C@@H](C)CO)C[C@H](C)[C@H](CN(C)C(=O)Nc2ccc(OC)cc2)OCCCC[C@H](C)O3)cc1`, the cytotoxicity call in the assay on HSkMC and with HepG2 was “inactive” each time. In the assay with S. aureus RN4220, the growth inhibition call is “inactive”.
Take `COC(=O)C[C@H]1CC[C@@H]2[C@H](COC[C@@H](O)CN2S(=O)(=O)c2ccc(F)cc2)O1`: the cytotoxicity call in the assay with HSkMC and with HepG2 was “inactive” in each case. The growth inhibition call with S. aureus RN4220 is “inactive”.
For the molecule `C[C@@H]1CN([C@H](C)CO)C(=O)CCCn2cc(nn2)CO[C@@H]1CN(C)S(=O)(=O)c1ccc(Oc2ccccc2)nc1`, the cytotoxicity call with HSkMC and in the assay with HepG2 was “inactive” throughout. The growth inhibition call with S. aureus RN4220 is “inactive”.
On to `C[C@@H]1CCCCO[C@H](CN(C)Cc2ccncc2)[C@H](C)CN([C@@H](C)CO)C(=O)c2cc(NS(=O)(=O)c3ccc(Cl)cc3)ccc2O1`, for which the cytotoxicity call in the assay with HSkMC and in the assay on HepG2 was “inactive” each time. Also, in the assay on S. aureus RN4220, the growth inhibition call is “inactive”.
Turning to `ON/C=N\c1nonc1-c1cccnc1`, the cytotoxicity call in the assay with HSkMC and in the assay on HepG2 was “inactive” each time. The growth inhibition call in the assay with S. aureus RN4220 is “inactive”.
For the molecule `CN(C)C(=O)C[C@@H]1CC[C@@H]2[C@H](COC[C@@H](O)CN2S(=O)(=O)c2ccccc2)O1`, the cytotoxicity call in the assay with HSkMC and in the assay on HepG2 was “inactive” in each case. Moreover, the growth inhibition call in the assay on S. aureus RN4220 was “inactive”.
On to `O=C1O[C@H](c2ccccc2)[C@H](c2ccccc2)N2[C@H]1[C@@H](C(=O)N1CCCCCCC1)[C@]1(C(=O)Nc3ccccc31)[C@H]2c1ccc(O)cc1`, for which the cytotoxicity call in the assay with HSkMC is “active”. The cytotoxicity call in the assay with HepG2 is “inactive”. Moreover, the growth inhibition call in the assay on S. aureus RN4220 was “inactive”.
Regarding `Cc1noc(C)c1S(=O)(=O)Nc1ccc2c(c1)CC(=O)N([C@H](C)CO)C[C@H](C)[C@@H](CN(C)Cc1ccncc1)O2`, the cytotoxicity call in the assay on HSkMC and with HepG2 was “inactive” each time. The growth inhibition call with S. aureus RN4220 was “inactive”.
As to `C[C@@H]1CCCCO[C@@H](CN(C)S(=O)(=O)c2cccs2)[C@@H](C)CN([C@H](C)CO)C(=O)c2cc(NS(C)(=O)=O)ccc2O1`, the cytotoxicity call with HSkMC and with HepG2 was “inactive” throughout. In addition, the growth inhibition call in the assay on S. aureus RN4220 is “inactive”.
Regarding `O=C(C[C@@H]1C[C@@H]2c3cc(NC(=O)c4ccc5c(c4)OCO5)ccc3O[C@@H]2[C@H](CO)O1)NCCc1ccccc1`, the cytotoxicity call with HSkMC is “inactive”. In addition, the cytotoxicity call in the assay with HepG2 was “active”. Also, in the assay with S. aureus RN4220, the growth inhibition call was “inactive”.
Consider `Cc1noc(C)c1NC(=O)N(C)C[C@@H]1Oc2c(NC(=O)c3ccc(-c4nccs4)cc3)cccc2C(=O)N([C@@H](C)CO)C[C@H]1C`, for which the cytotoxicity call in the assay on HSkMC (human skeletal muscle cells) and in the assay with HepG2 was “inactive” in each case. Besides, the growth inhibition call with S. aureus RN4220 was “inactive”.
`CC1CCC2C(C)C(OC(=O)CCC(=O)O)OC3OC4(C)CCC1C32OO4` (stereo unspecified): in the assay with HSkMC, the cytotoxicity call is “inactive”. The cytotoxicity call in the assay with HepG2 was “active”. The growth inhibition call with S. aureus RN4220 is “inactive”.
With `C[C@H](CO)N1C[C@H](C)[C@@H](CN(C)CC2CC2)OCCCC[C@H](C)Oc2ccc(NS(=O)(=O)c3ccc(Cl)cc3)cc2C1=O`, the cytotoxicity call with HSkMC and in the assay with HepG2 was “inactive” throughout. Besides, the growth inhibition call with S. aureus RN4220 was “inactive”.

Values taken from the antibiotic and cytotoxicity screens of Wong et al. (2023).
